From article PMC4336329 (PLoS ONE, 2015)
About 2,200 (0.71%) of roughly 310,000 compounds showed an effect of 50% or more. The effect is printed as a negative number. The list shows a part of the results.

What follows are compounds tested against human ether-à-go-go-related gene (hERG) potassium channel (human, UniProt Q12809) (assay: primary screen, population patch clamp on CHO cells stably expressing hERG).
Sequence of human ether-à-go-go-related gene (hERG) potassium channel (Q12809 whole entry, looked up): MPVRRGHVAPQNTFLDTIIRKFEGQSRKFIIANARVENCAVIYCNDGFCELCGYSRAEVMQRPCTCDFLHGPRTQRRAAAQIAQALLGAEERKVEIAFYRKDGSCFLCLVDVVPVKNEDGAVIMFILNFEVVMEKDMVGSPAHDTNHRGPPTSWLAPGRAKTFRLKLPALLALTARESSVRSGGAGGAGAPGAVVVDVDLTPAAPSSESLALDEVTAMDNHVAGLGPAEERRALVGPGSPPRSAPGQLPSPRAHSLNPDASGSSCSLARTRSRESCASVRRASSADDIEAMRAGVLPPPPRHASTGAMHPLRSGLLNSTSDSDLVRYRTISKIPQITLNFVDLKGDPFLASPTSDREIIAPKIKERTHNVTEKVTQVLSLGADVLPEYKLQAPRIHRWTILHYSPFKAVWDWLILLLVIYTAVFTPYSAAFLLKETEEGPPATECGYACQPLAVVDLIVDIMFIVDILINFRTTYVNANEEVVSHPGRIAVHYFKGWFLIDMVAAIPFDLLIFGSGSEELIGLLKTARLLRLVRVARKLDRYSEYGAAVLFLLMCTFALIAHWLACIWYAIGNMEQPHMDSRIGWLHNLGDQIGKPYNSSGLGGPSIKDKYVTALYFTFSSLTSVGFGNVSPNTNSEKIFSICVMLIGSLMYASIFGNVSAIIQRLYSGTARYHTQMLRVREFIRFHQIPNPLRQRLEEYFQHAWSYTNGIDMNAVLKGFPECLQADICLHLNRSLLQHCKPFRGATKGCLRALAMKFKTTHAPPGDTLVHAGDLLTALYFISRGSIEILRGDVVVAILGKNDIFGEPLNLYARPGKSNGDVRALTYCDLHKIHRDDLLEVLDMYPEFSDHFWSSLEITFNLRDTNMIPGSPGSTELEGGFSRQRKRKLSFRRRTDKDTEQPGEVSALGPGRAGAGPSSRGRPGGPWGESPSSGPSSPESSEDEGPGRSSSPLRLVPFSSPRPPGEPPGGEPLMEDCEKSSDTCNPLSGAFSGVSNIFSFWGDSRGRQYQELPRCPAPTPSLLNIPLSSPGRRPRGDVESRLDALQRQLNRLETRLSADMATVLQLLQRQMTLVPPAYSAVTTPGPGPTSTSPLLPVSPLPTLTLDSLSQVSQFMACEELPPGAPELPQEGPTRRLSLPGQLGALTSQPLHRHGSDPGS

| Structure (SMILES) | hERG current change (%, negative = inhibition) at 1uM |
| --- | --- |
| COc1ccc(-c2nc(SC(C)C(=O)c3c(N)n(C)c(=O)n(C)c3=O)n[nH]2)cc1 (stereo not drawn) | 19.1% |
| Cc1cc(C)cc(C(=O)NN2CCOCC2)c1 | -0.432% |
| CCCCc1cc(=O)oc2cc(C)cc(OC(C)C(=O)NC(Cc3c[nH]c4ccc(O)cc34)C(=O)O)c12 (stereo not drawn) | -5.83% |
| COc1ccc(S(=O)(=O)N2CC=C(C(=O)Nc3ccc(NC(C)=O)cc3)CC2)cc1 | 25.2% |
| CC#CCc1cc2ccccc2c(=O)o1 | 14.8% |
| CN(CC(=O)Nc1ccc(N2CCOCC2)cc1)CC(=O)Nc1ccccc1[N+](=O)[O-] | 8.04% |
| O=C(Cc1ccccc1)Nc1nc(-c2cccc([N+](=O)[O-])c2)cs1 | 15.9% |
| CNC(=O)C1CC(=O)N(CCc2ccc(C)cc2)C1 (stereo not drawn) | 16.2% |
| COC(=O)COc1ccc(S(=O)(=O)NCC2CCCO2)cc1Cl (stereo not drawn) | -4.66% |
| COc1ccc(CNC(=O)Cn2nnc(-c3ccc(NC(=O)C4CCCCC4)cc3)n2)cc1 | 11.6% |
| Cc1nc2ccc(NC(=O)NC(=O)c3c(Cl)cccc3Cl)cc2o1 | 13.8% |
| N=c1c2c(-c3ccccc3)c(-c3ccccc3)n(Cc3ccco3)c2ncn1CCO | -52.2% |
| COCCCN(CC(=O)NCc1ccccc1)S(=O)(=O)c1ccc(C)cc1 | 1.98% |
| O=C(O)Cn1c(=S)sc2ccccc21 | 12.2% |
| Cc1ccc(S(=O)(=O)NCCC(=O)OCC(=O)N2CCCC2=O)cc1 | 8.81% |
| CCOC(=O)c1cc(=O)c2ccc(OCC(=O)Nc3ccc(F)cc3)cc2o1 | 16.8% |
| CCN(CCNC(=O)CCCn1nc(C)n2c(cc3sccc32)c1=O)c1ccccc1 | -1.14% |
| Cc1ccc(NC(=O)C2CC(Cl)=CCC2C(=O)O)c([N+](=O)[O-])c1 (stereo not drawn) | 7.18% |
| CC(C)OC(=O)COc1ccc(-c2ccccc2)cc1 | 11.3% |
| CCn1c(=O)cc(OCC(=O)Nc2ccc(OC)c(OC)c2)c2ccccc21 | 3.13% |
| O=[N+]([O-])c1cc(C(F)(F)F)cc([N+](=O)[O-])c1NCCCNc1ccc([N+](=O)[O-])c2cccnc12 | 9.82% |
| C#CCn1c(=O)c2c(ncn2C)n(C)c1=O | 12.2% |
| N#CCCN(C(=O)COC(=O)CCc1c[nH]c2ccccc12)c1ccccc1 | 14.9% |

| Structure (SMILES) | hERG current change (%, negative = inhibition) at 1uM |
| --- | --- |
| Cc1nn(C2CCS(=O)(=O)C2)c(C)c1C=O (stereo not drawn) | 12% |
| Cc1ccc(SC(C)C(=O)O/N=C(\N)c2ccncc2)cc1 (stereo not drawn) | 11.7% |
| COc1ccccc1CNC(=O)CSc1cc(=O)n(C)c2ccccc12 | 8% |
| CNCc1sccc1C.Cl | -0.299% |
| CCOCCn1c(CN2CCCCC2C)nc2c1c(=O)n(C)c(=O)n2C (stereo not drawn) | 12.7% |
| COc1ccc(NC2CCCN(C(=O)c3ccccc3N3CCOCC3)C2)cc1OC (stereo not drawn) | 13.2% |
| Cc1ccc(C)c(NC(=O)c2ccccc2Sc2ccc([N+](=O)[O-])cc2Cl)c1 | 8.06% |
| COc1cccc(NC(=O)CN(C)CC(=O)Nc2ccc(C)c([N+](=O)[O-])c2)c1 | 6.87% |
| Oc1[nH]c(=S)sc1C=C1N=c2ccccc2=N1 | 16.6% |
| COc1cccc(C(=O)NCCN2C(=O)S/C(=C/c3cccs3)C2=O)c1OC | 8.24% |
| COCCCn1c(C(=O)N2CC(C)OC(C)C2)cc2c(=O)n3ccccc3nc21 (stereo not drawn) | 3.32% |
| C/C(Cn1nnc2ccccc21)=N\NC(=O)c1ccc(Br)cc1 | 6.17% |
| CC(C)Nc1nc(NC(C)C)nc(Oc2ccc(=O)n(C)n2)n1 | 13.3% |
| CC12CCC(C(=O)N(NC(=O)c3ccc(O)cc3)C1=O)C2(C)C (stereo not drawn) | 22% |
| COc1ccc(N(CC(=O)Nc2cc(Cl)ccc2OC)C2=NC3CS(=O)(=O)CC3S2)cc1 (stereo not drawn) | 1.31% |
| COc1ccc(Cl)cc1NC(=O)CNc1ccc(F)cc1C | 13.8% |
| O=C(COc1ccc(Cl)cc1Cl)NCC(=O)N/N=C/c1c[nH]c2ccccc12 | 16.6% |
| CN(CC(=O)Nc1ccccc1Cl)C(=O)COC(=O)/C=C/c1cccc(C(F)(F)F)c1 | 11% |
| COc1cccc(OCc2nnc(SCC(=O)NCc3ccco3)n2C)c1 | 14.6% |
| CC1CC(=O)NN1C(=O)c1ccccc1 (stereo not drawn) | 9% |
| CCOC(=O)Cn1c(CN2CCc3ccccc3C2)nc2c1c(=O)n(C)c(=O)n2C | 8.77% |
| Cc1nn(C)c(C(=O)Nc2ccn(Cc3ccccc3F)n2)c1[N+](=O)[O-] | -3.75% |
